Measured values: the supplement of paper PMC10126150
Values marked as one replicate rest on one cluster of the flow cell; about a third of the high ones do not repeat.

Tested on: ATP
Assay: switch fluorescence ratio, 500 uM ATP over buffer (Cy3 cluster intensity, sum of 5 cycles each) (fold (ratio)); higher = stronger signal-on switching upon ATP binding; sequences stand for … in TCGTCGGCAGCGTCAGATGTGTATAAGAGACAGTTTTTTTTTTTTTTTTTTTTTTTTT…TC
Details: aptamer strand: ATP DNA aptamer (quencher-CACCTGGGGGAGTATTGCGGAGGAAGG + anchor), 100 nM annealed; ATP concentration: 500 uM; one replicate
Summary of the method: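 Cy3-labelled switching-strand clusters on a modified Illumina MiSeq flow-cell were annealed to 100 nM quencher-labelled ATP aptamer, imaged in selection buffer, then imaged after 15 min with 500 uM ATP at 22 °C. Five buffer/ATP cycles ran, with NaOH stripping and re-annealing between them. The fluorescence ratio is summed target-cycle over summed buffer-cycle Cy3 intensity per cluster, averaged per switch-domain sequence. Clusters outside 100-1000 RFU were excluded.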
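Note: ATP exposure 15 min at 22 °C before imaging.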

| Sequence | switch fluorescence ratio |
| --- | --- |
| ACGCCTCAGG | 2.01 |
| TAGCTTTGGA | 1.04 |
| TGGAATCCTA | 0.969 |
| GGTATTTAGA | 0.993 |
| TTCCAAGGCG | 1.02 |
| TAATGGGAGT | 0.993 |
| CGGTTTCTGA | 0.987 |
| GCACTTATAC | 2.12 |
| CCACAGGGGT | 5.62 |
| CAAACGCTTG | 1.03 |
| ATCGCCGATG | 0.994 |
| AGATCTAGCG | 1.02 |
| AAGGTGATGG | 1.08 |
| CCGTCTACGA | 1.23 |
| TGATACATGG | 0.994 |
| GCTTTAGTCG | 1.01 |
| GATTTGCCTT | 0.98 |
| ACTAAATGAT | 1.02 |
| AATCGCAAAT | 1.27 |
| CCGATGCCCT | 1.44 |
| AAGCATTCAA | 0.985 |
| CGAGGGTCGA | 1.03 |
| GAAAAACCGG | 0.975 |

| Sequence | switch fluorescence ratio |
| --- | --- |
| GTGTTCACTG | 1 |
| AAGTTCGGCA | 0.988 |
| ATTAGGAATC | 0.996 |
| TTAAGAGATG | 0.996 |
| CGTTTAGGC | 0.961 |
| ATTCAGAGGT | 0.983 |
| ATACGACTTT | 1.08 |
| ATATAACACT | 1.1 |
| TCAAGACCA | 0.988 |
| ACATTAACAG | 1.06 |
| AGCGAGCATT | 1.01 |
| TGATCGTAGG | 0.952 |
| GCAGACCGAA | 1.01 |
| TAAGTATACG | 0.952 |
| GTGATGACGG | 1 |
| GCCGTAGGTT | 1.04 |
| GTTGGGATAG | 0.998 |
| GAATGTCGAT | 0.962 |
| GACACGGCTT | 1.03 |
| GTTTCTTTG | 1.02 |
| CAACTATATG | 0.982 |
| CACCTCAGTC | 1.02 |
| CATTTTTATT | 1 |

| Sequence | switch fluorescence ratio |
| --- | --- |
| TAATGTGGCT | 0.982 |
| ATTCCCTGTG | 1.11 |
| GAAGCAAAAA | 2.8 |
| TTATCCTCGT | 0.956 |
| TGTAAGCCCT | 0.973 |
| CATTATTATA | 0.969 |
| GTTAAGTCTA | 0.963 |
| GTCTAATTAT | 0.998 |
| CGAGGAGCCG | 0.988 |
| CCTGGTCGCA | 1.06 |
| GCTGTTTTCC | 0.913 |
| GCGTGTATT | 1.02 |
| CCGTAGGATT | 1.11 |
| GCTGTAGACA | 0.987 |
| AATATGAGAA | 0.992 |
| ACATTCTGAG | 1.02 |
| CGATGCAAGA | 5.21 |
| TCGATTGATT | 0.986 |
| AATATCAGT | 1.02 |
| GAGGTCAATT | 1.03 |
| CATTCCAGCG | 1.16 |
| CGTCCGGCCC | 1.14 |
| ATAAATCGAG | 0.989 |

| Sequence | switch fluorescence ratio |
| --- | --- |
| ACAGTATGTT | 1.05 |
| TTTTAGTAA | 1.05 |
| TCTCTGTAGC | 1.44 |
| GATATTATGC | 0.988 |
| GTGTTAGCGG | 1 |
| ATGTTCTCGC | 1.01 |
| TTATCATATT | 0.993 |
| CTAATATTTA | 1.01 |
| GCTTGGCGAT | 1.07 |
| GAACCTCAAG | 1.06 |
| CGATCTAGTG | 1 |
| CGATGGTTCA | 1 |
| TTCATTGCGG | 1.01 |
| CGATGAAGTC | 1.01 |
| TGTTATTCA | 1.02 |
| CTCAGGAAAG | 0.982 |
| TCTTAAACTT | 1.14 |
| AGACCTAAG | 0.984 |
| CCCAGCGGGT | 1.01 |
| TTGAATTATG | 0.981 |
| CGTATCGGG | 1.03 |
| TATTGTGATG | 0.972 |
| GTGTTAGTGC | 0.958 |

| Sequence | switch fluorescence ratio |
| --- | --- |
| GAGAAATAAA | 0.973 |
| TCGTATAGGA | 1.01 |
| GAAAGTAAAG | 1.04 |
| TTACTTATAC | 1.17 |
| TGCCGACATA | 1.03 |
| TTCCCATTCG | 1.02 |
| CAAGGATGGC | 1.04 |
| ATTGGGGATA | 0.974 |
| TAGTAAGTGG | 0.991 |
| CGACTGTTCT | 1 |
| CTGATTTTCA | 1.02 |
| ACGCATTCCT | 1.61 |
| GAGCACTAAA | 0.988 |
| AATCCCCACA | 1.03 |
| GCATTACAAC | 1.23 |
| CGCGGAATCC | 1.39 |
| TAAGCGAAAC | 1.18 |
| TTGGCTTTCA | 0.98 |
| GCTAATCGCC | 1.08 |
| AAAGCCGAT | 0.976 |
| CACCTTAGCC | 1.11 |
| TCATGGCCTT | 1.05 |
| GTAGGCAGGG | 1.02 |

| Sequence | switch fluorescence ratio |
| --- | --- |
| AGTATGAAGT | 0.997 |
| AAGACGCCAC | 1.74 |
| CACGGACTGA | 1.44 |
| CGTGCCCTGT | 1.03 |
| CCATGTGACG | 0.982 |
| TTAATCGTA | 0.998 |
| TTATATATGA | 1.02 |
| ATTTGTAACT | 0.999 |
| GGCTTATGTT | 0.956 |
| GGATATCGTA | 1 |
| AGATAGAGAA | 0.992 |
| GAGAAAAAA | 1 |
| AACAGGTCGT | 1.05 |
| TTTCGCCG | 0.884 |
| TTTAGAGGAG | 1.04 |
| TCTTGTTTAC | 1.56 |
| TTGAAACAGG | 1.03 |
| TAGTGGGCAC | 0.876 |
| GAGCAAGTTA | 1.07 |
| TGCGAAAGTG | 1 |
| GAAGGCCAGG | 1.13 |
| TTGTATTTAG | 0.986 |
| CCCTCTGTCA | 1.4 |

| Sequence | switch fluorescence ratio |
| --- | --- |
| TTACATTGGC | 1.08 |
| CCCGGTAGCT | 1.13 |
| GGAGTATCAA | 0.974 |
| ATACTCAGTT | 1.07 |
| GGAGATGACA | 1.04 |
| AGAATCGCGC | 0.997 |
| CATGACGGTA | 1.11 |
| ATTTACTCTT | 1.02 |
| TCATGGGTAT | 1.03 |
| CAAAGAAATG | 1 |
| GCTTACTGGG | 1.04 |
| CTTTCGGGAC | 1.19 |
| TCTGCGGGCG | 1.03 |
| TTAGTGTGAG | 0.973 |
| GCAATAAAAG | 0.985 |
| AAGAAAGCCT | 0.979 |
| GTGGGTTGAA | 0.988 |
| CTTTCATCAT | 1.01 |
| GCTGATATAT | 1 |
